# Data from the supplement of paper PMC8728848.
# The list shows a part of the results.
# Legend:
# Experiment in all cases: glycan array binding signal (z-score within array); higher = stronger binding
# Conditions in all cases: glycan notation: IUPAC condensed, linker removed
# [1] = molecular target: Neu5Ac(a2-3)Gal(b1-3)GlcNAc(b1-2)Man(a1-3)[GlcNAc(b1-4)][Neu5Ac(a2-3)Gal(b1-3)GlcNAc(b1-2)Man(a1-6)]Man(b1-4)GlcNAc(b1-4)GlcNAc
# Method in brief: (§1)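 Glycan array data were curated from 3228 arrays in the Consortium for Functional Glycomics database and kept only where the protein sequence was available. Glycan names were converted to IUPAC-condensed notation, and columns mapping to the same glycan were averaged. The binding signal is a within-array Z-score, averaged across arrays of the same protein sequence at different concentrations or buffers and across linkers. Negative Z-scores can be read as non-binding.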
# [2] = molecular target: Neu5Ac(a2-3)Gal(b1-3)GlcNAc(b1-2)Man(a1-3)[Neu5Ac(a2-3)Gal(b1-3)GlcNAc(b1-2)Man(a1-6)]Man(b1-4)GlcNAc(b1-4)GlcNAc
# Method in brief: as §1
# [3] = molecular target: Neu5Ac(a2-3)Gal(b1-3)GlcNAc(b1-3)Gal(b1-3)GlcNAc
# Method in brief: as §1
# [4] = molecular target: Neu5Ac(a2-3)Gal(b1-3)GlcNAc(b1-3)Gal(b1-4)GlcNAc
# Method in brief: as §1
# [5] = molecular target: Neu5Ac(a2-3)Gal(b1-3)GlcNAc(b1-3)GalNAc
# Method in brief: as §1
# [6] = molecular target: Neu5Ac(a2-3)Gal(b1-3)GlcNAc(b1-4)Gal(b1-4)Glc
# Method in brief: as §1
# [7] = molecular target: Neu5Ac(a2-3)Gal(b1-3)GlcNAc(b1-6)GalNAc
# Method in brief: as §1
# [8] = molecular target: Neu5Ac(a2-3)Gal(b1-3)GlcNAc6S
# Method in brief: as §1
# [9] = molecular target: Neu5Ac(a2-3)Gal(b1-3)[Fuc(a1-4)]GlcNAc
# Method in brief: as §1
# [10] = molecular target: Neu5Ac(a2-3)Gal(b1-3)[Fuc(a1-4)]GlcNAc(b1-3)Gal(b1-3)[Fuc(a1-4)]GlcNAc
# Method in brief: as §1
# [11] = molecular target: Neu5Ac(a2-3)Gal(b1-3)[Fuc(a1-4)]GlcNAc(b1-3)Gal(b1-4)[Fuc(a1-3)]GlcNAc
# Method in brief: as §1
# [12] = molecular target: Neu5Ac(a2-3)Gal(b1-3)[GlcNAc(b1-6)]GalNAc
# Method in brief: as §1
# [13] = molecular target: Neu5Ac(a2-3)Gal(b1-3)[Neu5Ac(a2-6)]GalNAc
# Method in brief: as §1
# [14] = molecular target: Neu5Ac(a2-3)Gal(b1-3)[Neu5Ac(a2-6)]GlcNAc(b1-3)[Fuc(a1-3)[Gal(b1-4)]GlcNAc(b1-6)]Gal(b1-4)Glc
# Method in brief: as §1
# [15] = molecular target: Neu5Ac(a2-3)Gal(b1-3)]Neu5Ac(a2-3)Gal(b1-4)]GlcNAc
# Method in brief: as §1
# Neu5Ac(a2-3)Gal(b1-4)Glc = molecular target: Neu5Ac(a2-3)Gal(b1-4)Glc
# Method in brief: as §1
# [16] = molecular target: Neu5Ac(a2-3)Gal(b1-4)GlcNAc
# Method in brief: as §1
# [17] = molecular target: Neu5Ac(a2-3)Gal(b1-4)GlcNAc(b1-2)Man
# Method in brief: as §1
# [18] = molecular target: Neu5Ac(a2-3)Gal(b1-4)GlcNAc(b1-2)Man(a1-3)[GlcNAc(b1-4)][Neu5Ac(a2-3)Gal(b1-4)GlcNAc(b1-2)Man(a1-6)]Man(b1-4)GlcNAc(b1-4)GlcNAc
# Method in brief: as §1
# [19] = molecular target: Neu5Ac(a2-3)Gal(b1-4)GlcNAc(b1-2)Man(a1-3)[Neu5Ac(a2-3)Gal(b1-4)GlcNAc(b1-2)Man(a1-6)]Man(b1-4)GlcNAc(b1-4)GlcNAc
# Method in brief: as §1
# [20] = molecular target: Neu5Ac(a2-3)Gal(b1-4)GlcNAc(b1-2)Man(a1-3)[Neu5Ac(a2-3)Gal(b1-4)GlcNAc(b1-2)Man(a1-6)]Man(b1-4)GlcNAc(b1-4)[Fuc(a1-6)]GlcNAc
# Method in brief: as §1
# [21] = molecular target: Neu5Ac(a2-3)Gal(b1-4)GlcNAc(b1-2)Man(a1-3)[Neu5Ac(a2-6)Gal(b1-4)GlcNAc(b1-2)Man(a1-6)]Man(b1-4)GlcNAc(b1-4)GlcNAc
# Method in brief: as §1
# [22] = molecular target: Neu5Ac(a2-3)Gal(b1-4)GlcNAc(b1-2)[Neu5Ac(a2-3)Gal(b1-4)GlcNAc(b1-4)]Man(a1-3)[GlcNAc(b1-4)][Neu5Ac(a2-3)Gal(b1-4)GlcNAc(b1-2)[Neu5Ac(a2-3)Gal(b1-4)GlcNAc(b1-6)]Man(a1-6)]Man(b1-4)GlcNAc(b1-4)GlcNAc
# Method in brief: as §1
# [23] = molecular target: Neu5Ac(a2-3)Gal(b1-4)GlcNAc(b1-2)[Neu5Ac(a2-3)Gal(b1-4)GlcNAc(b1-4)]Man(a1-3)[GlcNAc(b1-4)][Neu5Ac(a2-3)Gal(b1-4)GlcNAc(b1-4)Man(a1-6)]Man(b1-4)GlcNAc(b1-4)GlcNAc
# Method in brief: as §1
# [24] = molecular target: Neu5Ac(a2-3)Gal(b1-4)GlcNAc(b1-2)[Neu5Ac(a2-3)Gal(b1-4)GlcNAc(b1-6)]Man(a1-6)[Neu5Ac(a2-3)Gal(b1-4)GlcNAc(b1-2)Man(a1-3)]Man(b1-4)GlcNAc(b1-4)GlcNAc
# Method in brief: as §1
# [25] = molecular target: Neu5Ac(a2-3)Gal(b1-4)GlcNAc(b1-2)[Neu5Ac(a2-3)Gal(b1-4)GlcNAc(b1-6)]Man(a1-6)[Neu5Ac(a2-3)Gal(b1-4)GlcNAc(b1-2)Man(a1-3)][GlcNAc(b1-4)]Man(b1-4)GlcNAc(b1-4)GlcNAc
# Method in brief: as §1
# [26] = molecular target: Neu5Ac(a2-3)Gal(b1-4)GlcNAc(b1-3)Gal
# Method in brief: as §1
# [27] = molecular target: Neu5Ac(a2-3)Gal(b1-4)GlcNAc(b1-3)Gal(b1-3)GlcNAc
# Method in brief: as §1
# [28] = molecular target: Neu5Ac(a2-3)Gal(b1-4)GlcNAc(b1-3)Gal(b1-4)GlcNAc
# Method in brief: as §1
# [29] = molecular target: Neu5Ac(a2-3)Gal(b1-4)GlcNAc(b1-3)Gal(b1-4)GlcNAc(b1-2)Man(a1-3)[Neu5Ac(a2-3)Gal(b1-4)GlcNAc(b1-3)Gal(b1-4)GlcNAc(b1-2)Man(a1-6)]Man(b1-4)GlcNAc(b1-4)GlcNAc
# Method in brief: as §1
# [30] = molecular target: Neu5Ac(a2-3)Gal(b1-4)GlcNAc(b1-3)Gal(b1-4)GlcNAc(b1-3)Gal(b1-4)GlcNAc
# Method in brief: as §1
# [31] = molecular target: Neu5Ac(a2-3)Gal(b1-4)GlcNAc(b1-3)Gal(b1-4)GlcNAc(b1-3)Gal(b1-4)GlcNAc(b1-2)Man(a1-3)[Neu5Ac(a2-3)Gal(b1-4)GlcNAc(b1-3)Gal(b1-4)GlcNAc(b1-3)Gal(b1-4)GlcNAc(b1-2)Man(a1-6)]GalNAc
# Method in brief: as §1
# [32] = molecular target: Neu5Ac(a2-3)Gal(b1-4)GlcNAc(b1-3)Gal(b1-4)GlcNAc(b1-3)GalNAc
# Method in brief: as §1
# [33] = molecular target: Neu5Ac(a2-3)Gal(b1-4)GlcNAc(b1-3)Gal(b1-4)GlcNAc(b1-3)[Neu5Ac(a2-3)Gal(b1-4)GlcNAc(b1-3)Gal(b1-4)GlcNAc(b1-6)]GalNAc
# Method in brief: as §1
# [34] = molecular target: Neu5Ac(a2-3)Gal(b1-4)GlcNAc(b1-3)Gal(b1-4)GlcNAc(b1-6)[Gal(b1-3)]GalNAc
# Method in brief: as §1
# [35] = molecular target: Neu5Ac(a2-3)Gal(b1-4)GlcNAc(b1-3)Gal(b1-4)[Fuc(a1-3)]GlcNAc
# Method in brief: as §1
# [36] = molecular target: Neu5Ac(a2-3)Gal(b1-4)GlcNAc(b1-3)GalNAc
# Method in brief: as §1
# [37] = molecular target: Neu5Ac(a2-3)Gal(b1-4)GlcNAc(b1-3)[Neu5Ac(a2-3)Gal(b1-4)GlcNAc(b1-6)]GalNAc
# Method in brief: as §1
binder,measurement,setting,value
PX9961T-pdi-555-33-555 (Parabacteroides distasonis) (protein) FDEETAFQSPTLVYVNTVASLYNNMFKIMGNDRHVYDLNTFSSDEAMLPCRIGDWEDGGLWQNIFLHRWGTMNDLTKNSWDFLYEQIGKCNQSVDKLQAFAEEQPDVEYFKVYLEEVRAVRAFFYYELLDLFARVPLVTSSTTPMSEVKQSERSVVFNFVRSELEEALPYLSDNRSNQKGEYYGRITKPVAYMILAKLALNAEVYADDNWTDGNRPAGKNIKFTVDGKEMNAWEATIAYVDKLEALGYKLQGNFSENFAVANETSVENIFTVPMDPVAYPDAKDYNLVRTRHYDHATAYGQSGWNGSCATVKAMNVFKFGTADEDPRCKLTYFTGEVTGPDGKTIYTEWDGQKVPLKYEPNAPKVYMDASDGLLVKTAGARMAKYEFDQNAQDGGNLHGNDCVIFRFADALLMKAEAKIRLGQNGDDEVNQVRNRVGAKPLQNVTLDTLLDERMLELAWEGVRRQDLIRFGKFTEATVDRYVGVKHFASSLDYQEDKTGYTTVFSIYADILSLNPNLTQNPGY,glycan array binding signal (z-score),[1],0.166
same,glycan array binding signal (z-score),[2],-0.023
same,glycan array binding signal (z-score),[3],-0.414
same,glycan array binding signal (z-score),[4],-0.716
same,glycan array binding signal (z-score),[5],0.364
same,glycan array binding signal (z-score),[6],0.232
same,glycan array binding signal (z-score),[7],0.149
same,glycan array binding signal (z-score),[8],0.118
same,glycan array binding signal (z-score),[9],-0.461
same,glycan array binding signal (z-score),[10],-0.347
same,glycan array binding signal (z-score),[11],-0.031
same,glycan array binding signal (z-score),[12],0.051
same,glycan array binding signal (z-score),[13],-0.194
same,glycan array binding signal (z-score),[14],-0.614
same,glycan array binding signal (z-score),[15],-0.714
same,glycan array binding signal (z-score),Neu5Ac(a2-3)Gal(b1-4)Glc,-0.207
same,glycan array binding signal (z-score),[16],-0.032
same,glycan array binding signal (z-score),[17],0.548
same,glycan array binding signal (z-score),[18],-0.376
same,glycan array binding signal (z-score),[19],-0.299
same,glycan array binding signal (z-score),[20],0.57
same,glycan array binding signal (z-score),[21],-0.362
same,glycan array binding signal (z-score),[22],-0.127
same,glycan array binding signal (z-score),[23],0.676
same,glycan array binding signal (z-score),[24],0.519
same,glycan array binding signal (z-score),[25],-0.381
same,glycan array binding signal (z-score),[26],-0.461
same,glycan array binding signal (z-score),[27],-0.311
same,glycan array binding signal (z-score),[28],-0.536
same,glycan array binding signal (z-score),[29],1.31
same,glycan array binding signal (z-score),[30],-0.719
same,glycan array binding signal (z-score),[31],1.63
same,glycan array binding signal (z-score),[32],-0.786
same,glycan array binding signal (z-score),[33],-0.286
same,glycan array binding signal (z-score),[34],-0.622
same,glycan array binding signal (z-score),[35],-0.528
same,glycan array binding signal (z-score),[36],0.226
same,glycan array binding signal (z-score),[37],0.45
